Measurements taken from patent US20120141504A1 (MAYO FOUNDATION FOR MEDICAL EDUCATION AND RESEARCH, published 2012).

Target: T1, human B7-H3.1 expressed on 293 cells transfected with pcDNA/B7-H3 (human, UniProt Q5ZPR3 29-534)
T1 sequence: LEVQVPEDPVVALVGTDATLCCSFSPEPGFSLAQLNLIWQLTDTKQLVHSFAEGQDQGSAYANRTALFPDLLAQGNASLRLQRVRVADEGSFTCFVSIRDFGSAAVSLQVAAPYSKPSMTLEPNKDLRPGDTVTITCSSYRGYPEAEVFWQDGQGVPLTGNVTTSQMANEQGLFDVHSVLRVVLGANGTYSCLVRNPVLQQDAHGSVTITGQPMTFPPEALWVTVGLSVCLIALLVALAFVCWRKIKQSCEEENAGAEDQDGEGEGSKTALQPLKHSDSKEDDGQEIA
Assay: flow cytometry on transfected 293 cells

B1: CTLA4Ig fusion protein (Fc fusion)
chain: not shown
notes: extracellular domain; Described as an analogous fusion protein prepared by a method similar to that for B7-H3Ig (extracellular domain fused to mouse IgG2a Fc); not shown: Fc constant region of mouse IgG2a
B1: no binding (tested: 5 µg/sample).
